Assay results reported in the supplement of paper PMC9446081.
Screen size: about 39,000 compounds; about 220 (0.56%) showed activity. This is one part of the list.
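Further: static incubation at 37 °C against the wild-type strain, values averaged over two biological replicates.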

Each compound was assayed on Escherichia coli K-12 BW25113 (assay: relative growth (OD600 normalised to plate interquartile mean) (fraction); higher = less growth inhibition, active = 0.2 or less). Conditions: 50 µM; LB; incubation time: overnight (16-24 h).
`CC(=O)OCC1=C(C(=O)[O-])N2C(=O)C(NC(=O)CSc3ccncc3)C2SC1.[Na+]` (centres undefined) was tested, and the relative growth was inactive: 0.797. `COc1cccc(-c2cnc3c(c2)C(=O)N([C@H](C)CO)C[C@H](C)[C@H](CN(C)Cc2cccc(C(F)(F)F)c2)O3)c1` was tested, and the relative growth was inactive: 1.01. `Cc1noc(C)c1S(=O)(=O)N(C)C[C@H]1Oc2ccc(N(C)C)cc2CC(=O)N([C@@H](C)CO)C[C@H]1C` was tested, and the relative growth was inactive: 0.974. `CCCN(C)C[C@@H]1OCCCC[C@@H](C)Oc2ccc(NC(=O)C3CCCCC3)cc2C(=O)N([C@H](C)CO)C[C@@H]1C` was tested, and the relative growth was inactive: 1.02. In the case of `O=C(C[C@H]1CC[C@H]2[C@@H](COC[C@H](O)CN2C(=O)Nc2ccc(Cl)c(Cl)c2)O1)NCc1ccc(Cl)c(Cl)c1`, the relative growth is reported as inactive: 0.985. In the case of `C[C@@H]1CN([C@@H](C)CO)C(=O)c2cc(NC(=O)Nc3cccc4ccccc34)ccc2O[C@@H](C)CCCCO[C@H]1CN(C)C(=O)Nc1cccc2ccccc12`, the relative growth is reported as inactive: 1.04. In the case of `COc1ccccc1CNC(=O)C[C@H]1CC[C@H]2[C@@H](COC[C@@H](O)CN2C(=O)Nc2ccc(Cl)cc2)O1`, the relative growth is reported as inactive: 0.973. With `CCCC(=O)Nc1ccc2c(c1)C(=O)N(C)C[C@@H](OC)[C@H](C)CN(Cc1ccc(-c3ccccn3)cc1)[C@H](C)CO2` the relative growth was inactive: 1.01. For `COc1cccc(-c2ccc3c(c2)O[C@@H](CN(C)C(=O)C2CCOCC2)[C@H](C)CN([C@H](C)CO)S3(=O)=O)c1`, the relative growth was inactive: 1. In the case of `CCCCCCc1nc(CCCc2cc3c(c(CCCCCC)n2)[Si](C(C)C)(C(C)C)O[C@H]3c2ccccc2)cc2c1[Si](C(C)C)(C(C)C)O[C@H]2c1ccccc1`, the relative growth is reported as inactive: 1.03. `C[C@H](CO)N1C[C@H](C)[C@H](CN(C)C(=O)Nc2ccccc2)Oc2c(NC(=O)Nc3ccc(C(F)(F)F)cc3)cccc2C1=O` was tested, and the relative growth was inactive: 1.01. In the case of `O=C(C[C@@H]1CC[C@@H]2[C@H](COC[C@H](O)CN2C(=O)CCN2CCCCC2)O1)NCCCN1CCOCC1`, the relative growth is reported as inactive: 1.01. With `Cc1ccc(S[C@]2(C(=O)NC3CC3)CC(=O)N(Cc3cc(C(F)(F)F)cc(C(F)(F)F)c3)[C@@H]2c2ccc(CO)cc2I)cc1` the relative growth was inactive: 0.975. With `C[C@@H]1CCCCO[C@@H](CN(C)C(=O)CCC(F)(F)F)[C@@H](C)CN([C@H](C)CO)C(=O)c2cc(NC(=O)C3CCCCC3)ccc2O1` the relative growth was inactive: 1.01. With `C[C@@H]1CN([C@@H](C)CO)S(=O)(=O)c2ccc(C#CC3(O)CCCC3)cc2O[C@@H]1CN(C)C(=O)c1ccncc1` the relative growth was inactive: 0.993. In the case of `C[C@@H]1CCCCO[C@H](CN(C)Cc2ccc(C(F)(F)F)cc2)[C@H](C)CN([C@@H](C)CO)C(=O)c2cc(N(C)C)ccc2O1`, the relative growth is reported as inactive: 0.959. With `C[C@H](CO)N1C[C@H](C)[C@H](CN(C)S(=O)(=O)c2cn(C)cn2)Oc2ccc(NS(=O)(=O)c3ccc(Cl)cc3)cc2CC1=O` the relative growth was inactive: 0.992. In the case of `C[C@H](CO)N1C[C@H](C)[C@@H](CN(C)C(=O)Nc2ccc(C(F)(F)F)cc2)OCCCC[C@H](C)Oc2ccc(NC(=O)Nc3ccccc3)cc2C1=O`, the relative growth is reported as inactive: 0.996. In the case of `COc1ccc(NC(=O)Nc2ccc3c(c2)C(=O)N([C@H](C)CO)C[C@@H](C)[C@H](CN(C)CC2CC2)OCCCC[C@H](C)O3)cc1`, the relative growth is reported as inactive: 0.935. For `C[C@@H]1CN([C@@H](C)CO)C(=O)c2cc(NS(=O)(=O)c3ccccc3)ccc2O[C@H]1CN(C)S(=O)(=O)c1ccccc1`, the relative growth was inactive: 1. In the case of `C[C@@H]1CCCCO[C@@H](CN(C)C(=O)Nc2ccccc2)[C@@H](C)CN([C@@H](C)CO)C(=O)c2cc(NS(=O)(=O)c3ccc(F)cc3)ccc2O1`, the relative growth is reported as inactive: 1.02. For `COCC(=O)N(C)C[C@@H]1Oc2cc(C#Cc3cccnc3)ccc2S(=O)(=O)N([C@H](C)CO)C[C@@H]1C`, the relative growth was inactive: 0.977. In the case of `C[C@@H]1CN([C@H](C)CO)C(=O)c2cccc(NC(=O)Nc3cccc4ccccc34)c2O[C@H]1CN(C)S(=O)(=O)c1ccc(Cl)cc1`, the relative growth is reported as inactive: 0.989. In the case of `Cc1cc(C)c2c(c1)NC(=O)C[C@H]2c1cccc(Cl)c1Cl`, the relative growth is reported as inactive: 1.03. With `Nc1ccc(O)c(C(=O)O)c1` the relative growth was inactive: 1.01. In the case of `COc1ccc(cc1)CN1C[C@]2(CCN(CC2)C(=O)Nc2cccc(c2)F)c2c([nH]c3cc(ccc23)OC)[C@@H]1CO`, the relative growth is reported as inactive: 1.03. With `C[C@@H]1CN([C@@H](C)CO)C(=O)c2cc(NC(=O)Cc3ccccc3)ccc2O[C@H]1CN(C)S(C)(=O)=O` the relative growth was inactive: 0.987. In the case of `C/C=C/c1ccc2c(c1)O[C@H](CN(C)C(=O)c1ccc3c(c1)OCO3)[C@H](C)CN([C@@H](C)CO)S2(=O)=O`, the relative growth is reported as inactive: 1.02. With `C[C@H](CO)N1C[C@H](C)[C@@H](CN(C)Cc2ccccc2)Oc2ccc(NC(=O)CCN3CCOCC3)cc2C1=O` the relative growth was inactive: 1.01. `COc1ccc(S(=O)(=O)N[C@H]2C=C[C@@H](CC(=O)NCCc3ccncc3)O[C@@H]2CO)cc1` was tested, and the relative growth was inactive: 1.03. `C[C@@H]1CCN(C(=O)[C@H](CCCNC(=N)N)NS(=O)(=O)c2cccc3c2NC[C@H](C)C3)[C@@H](C(=O)O)C1` was tested, and the relative growth was inactive: 1. `Cc1noc(C)c1NC(=O)Nc1ccc2c(c1)C(=O)N([C@@H](C)CO)C[C@@H](C)[C@@H](CN(C)C(=O)Nc1c(C)noc1C)OCCCC[C@@H](C)O2` was tested, and the relative growth was inactive: 1. `O=C(C[C@@H]1CC=CCC[C@@H](Cc2ccc(F)cc2)C(=O)OC[C@H](Cc2c[nH]c3ccccc23)NC1=O)N[C@H](CO)Cc1ccccc1` was tested, and the relative growth was inactive: 1.01. With `C[C@H](CO)N1C[C@H](C)[C@@H](CN(C)C(=O)c2ccc3c(c2)OCO3)Oc2ncc(C3=CCCC3)cc2C1=O` the relative growth was inactive: 1.01. `c1ccc(CCNc2ccnc3cc4ccccc4cc23)cc1` was tested, and the relative growth was inactive: 0.946. `NCCCCC(NC(CCc1ccccc1)C(=O)O)C(=O)N1CCCC1C(=O)O` (centres undefined) was tested, and the relative growth was inactive: 1.06. In the case of `CC1CCC2(OC1)OC1CC3C4CCC5CC(O)CCC5(C)C4CC(=O)C3(C)C1C2C` (centres undefined), the relative growth is reported as inactive: 0.913. With `CC(C)NC(=O)N(C)C[C@@H]1Oc2ccc(NC(=O)Cn3cnnn3)cc2CC(=O)N([C@@H](C)CO)C[C@@H]1C` the relative growth was inactive: 0.994. In the case of `C[C@H](CO)N1C[C@H](C)[C@H](CN(C)C(=O)Nc2cccc3ccccc23)Oc2ccc(NC(=O)Cc3ccccc3)cc2C1=O`, the relative growth is reported as inactive: 0.971. For `COCC(=O)Nc1ccc2c(c1)C(=O)N(C)[C@H]1CC[C@H](CC(=O)NC3Cc4ccccc4C3)O[C@H]1CO2`, the relative growth was inactive: 1. With `C[C@@H]1CN([C@H](C)CO)S(=O)(=O)c2ccc(C#CC3(O)CCCC3)cc2O[C@H]1CN(C)C(=O)Nc1cccc(F)c1` the relative growth was inactive: 1. For `COc1ccc(CN(C)C[C@@H]2OCCCC[C@@H](C)Oc3ccc(NC(=O)Nc4ccc(C(F)(F)F)cc4)cc3C(=O)N([C@@H](C)CO)C[C@H]2C)cc1`, the relative growth was inactive: 0.948. In the case of `COc1ccc(NC(=O)N(C)C[C@H]2OCCCC[C@@H](C)Oc3ccc(NC(=O)Cc4ccccc4)cc3C(=O)N([C@@H](C)CO)C[C@H]2C)cc1`, the relative growth is reported as inactive: 0.988. For `CCCCc1ccc(S(=O)(=O)Nc2nccnc2-c2ccc(COc3cc(CC)nc4ccccc34)cc2)cc1`, the relative growth was inactive: 1. `C[C@@H]1CN([C@@H](C)CO)C(=O)Cc2cc(NC(=O)Cc3ccccc3)ccc2O[C@H]1CN(C)C(=O)Nc1ccc(C(F)(F)F)cc1` was tested, and the relative growth was inactive: 0.976. With `Cc1ccc(S(=O)(=O)Nc2ccc3c(c2)C(=O)N([C@H](C)CO)C[C@H](C)[C@H](CN(C)Cc2ccc(C(F)(F)F)cc2)OCCCC[C@H](C)O3)cc1` the relative growth was inactive: 0.94. In the case of `Cc1cc(OC(=O)c2c(C)cc(O)cc2O)cc(O)c1C(=O)O`, the relative growth is reported as inactive: 0.877. `C[C@@H]1CN([C@H](C)CO)C(=O)c2cc(NS(=O)(=O)c3ccc(F)cc3)ccc2O[C@@H](C)CCCCO[C@H]1CN(C)C(=O)Nc1ccc2c(c1)OCO2` was tested, and the relative growth was inactive: 1. In the case of `O=C([O-])c1cc(=O)c2c(OCC(O)COc3cccc4oc(C(=O)[O-])cc(=O)c34)cccc2o1.[Na+].[Na+]`, the relative growth is reported as inactive: 1.09. In the case of `Cc1cc(N)n(-c2nc(=O)c(C)c(C)[nH]2)n1`, the relative growth is reported as inactive: 0.75. For `COc1cccc(S(=O)(=O)N[C@H]2CC[C@@H](CC(=O)NC3CCC3)O[C@H]2CO)c1`, the relative growth was inactive: 1.02. With `CCc1nc2ccccc2c(C(=O)Nc2cccc(Cl)c2)c1C` the relative growth was inactive: 1.01. With `C[C@H]1CN([C@@H](C)CO)S(=O)(=O)c2ccc(C#Cc3ccccc3F)cc2O[C@H]1CN(C)C(=O)c1ccc2c(c1)OCO2` the relative growth was inactive: 1.06. For `Cc1noc(C)c1S(=O)(=O)N(C)C[C@H]1Oc2ccc(NS(=O)(=O)c3cn(C)cn3)cc2CC(=O)N([C@H](C)CO)C[C@H]1C`, the relative growth was inactive: 0.972. For `C[C@H]1CN([C@@H](C)CO)C(=O)Cc2cc(NS(=O)(=O)c3ccc(F)cc3)ccc2O[C@H]1CN(C)S(=O)(=O)c1cn(C)cn1`, the relative growth was inactive: 0.995. In the case of `C[C@@H]1CN([C@@H](C)CO)C(=O)c2cc(C#Cc3ccccc3F)cnc2O[C@@H]1CN(C)C(=O)Cc1ccncc1`, the relative growth is reported as inactive: 0.956. `C[C@@H]1CN([C@H](C)CO)C(=O)c2cc(C3=CCCCC3)cnc2O[C@@H]1CN(C)S(=O)(=O)c1cn(C)cn1` was tested, and the relative growth was inactive: 0.968. With `Cc1noc(C)c1NC(=O)Nc1ccc2c(c1)C(=O)N([C@H](C)CO)C[C@H](C)[C@H](CN(C)C(=O)Cc1ccccc1)OCCCC[C@@H](C)O2` the relative growth was inactive: 1.03. For `C[C@H]1CN([C@@H](C)CO)C(=O)c2cccc(NS(C)(=O)=O)c2O[C@H]1CN(C)C(=O)Nc1ccc(F)cc1`, the relative growth was inactive: 0.979.
